# Measurements published in the supplement of paper PMC8728848.
# The list shows a part of the results.
# B1: HPAIIITrx (Helix pomatia), Q1KM18 (protein)
# chain: MLFVTIISLGLLAIVHGQCALKTIAFSAAIDREQTFDANQVVIYDIVITNHGNAYDNSTGLFTAPVDGMYSFQLNLLTIKEKEGWLELVHNGQLKVSVYAKQDSTYDSSSNSVIIKMKEGDRVNVRAHKKSGLFGRDDELYNTFSGHFLSGL
# Tests used:
# Assay in all cases: glycan array binding signal (z-score within array); higher = stronger binding
# Conditions in all cases: glycan notation: IUPAC condensed, linker removed
# [1] = target: Fuc(a1-2)Gal(b1-4)GlcNAc(b1-2)[Fuc(a1-2)Gal(b1-4)GlcNAc(b1-4)]Man(a1-3)[Fuc(a1-2)Gal(b1-4)GlcNAc(b1-2)Man(a1-6)]Man(b1-4)GlcNAc(b1-4)GlcNAc
# How it was run: (§1)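 Columns mapping to the same glycan were averaged after glycan names were converted to IUPAC-condensed notation. The data come from 3228 arrays in the Consortium for Functional Glycomics database, limited to those with an available protein sequence. Binding is reported as a within-array Z-score averaged across arrays of one protein sequence and across linkers.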
# [2] = target: Fuc(a1-2)Gal(b1-4)GlcNAc(b1-3)Gal(b1-4)GlcNAc
# How it was run: as §1
# [3] = target: Fuc(a1-2)Gal(b1-4)GlcNAc(b1-3)Gal(b1-4)GlcNAc(b1-2)Man(a1-3)[Fuc(a1-2)Gal(b1-4)GlcNAc(b1-3)Gal(b1-4)GlcNAc(b1-2)Man(a1-6)]Man(b1-4)GlcNAc(b1-4)GlcNAc
# How it was run: as §1
# [4] = target: Fuc(a1-2)Gal(b1-4)GlcNAc(b1-3)Gal(b1-4)GlcNAc(b1-3)Gal(b1-4)GlcNAc
# How it was run: as §1
# [5] = target: Fuc(a1-2)Gal(b1-4)GlcNAc(b1-3)GalNAc
# How it was run: as §1
# [6] = target: Fuc(a1-2)Gal(b1-4)GlcNAc(b1-3)[Fuc(a1-2)Gal(b1-4)GlcNAc(b1-6)]GalNAc
# How it was run: as §1
# [7] = target: Fuc(a1-2)Gal(b1-4)GlcNAc(b1-3)[Fuc(a1-3)[Gal(b1-4)]GlcNAc(b1-6)]Gal(b1-4)Glc
# How it was run: as §1
# [8] = target: Fuc(a1-2)Gal(b1-4)GlcNAc(b1-6)GalNAc
# How it was run: as §1
# [9] = target: Fuc(a1-2)Gal(b1-4)GlcNAc6S
# How it was run: as §1
# [10] = target: Fuc(a1-2)Gal(b1-4)[Fuc(a1-3)]GlcNAc
# How it was run: as §1
# [11] = target: Fuc(a1-2)Gal(b1-4)[Fuc(a1-3)]GlcNAc(b1-2)Man(a1-3)[Fuc(a1-2)Gal(b1-4)[Fuc(a1-3)]GlcNAc(b1-2)Man(a1-6)]Man(b1-4)GlcNAc(b1-4)GlcNAc
# How it was run: as §1
# [12] = target: Fuc(a1-2)Gal(b1-4)[Fuc(a1-3)]GlcNAc(b1-2)Man(a1-3)[Fuc(a1-2)Gal(b1-4)[Fuc(a1-3)]GlcNAc(b1-2)Man(a1-6)]Man(b1-4)GlcNAc(b1-4)[Fuc(a1-6)]GlcNAc
# How it was run: as §1
# [13] = target: Fuc(a1-2)Gal(b1-4)[Fuc(a1-3)]GlcNAc(b1-2)[Fuc(a1-2)Gal(b1-4)[Fuc(a1-3)]GlcNAc(b1-4)]Man(a1-3)[Fuc(a1-2)Gal(b1-4)[Fuc(a1-3)]GlcNAc(b1-2)Man(a1-6)]Man(b1-4)GlcNAc(b1-4)GlcNAc
# How it was run: as §1
# [14] = target: Fuc(a1-2)Gal(b1-4)[Fuc(a1-3)]GlcNAc(b1-3)Gal(b1-4)[Fuc(a1-3)]GlcNAc
# How it was run: as §1
# [15] = target: Fuc(a1-2)Gal(b1-4)[Fuc(a1-3)]GlcNAc(b1-3)Gal(b1-4)[Fuc(a1-3)]GlcNAc(b1-3)Gal(b1-4)[Fuc(a1-3)]GlcNAc
# How it was run: as §1
# [16] = target: Fuc(a1-2)Gal(b1-4)[Fuc(a1-3)]GlcNAc(b1-3)GalNAc
# How it was run: as §1
# [17] = target: Fuc(a1-2)Gal(b1-4)[Fuc(a1-3)]GlcNAc(b1-3)[Neu5Ac(a2-6)Gal(b1-4)GlcNAc(b1-6)]Gal(b1-4)Glc
# How it was run: as §1
# [18] = target: Fuc(a1-2)Gal3S(b1-4)GlcNAc
# How it was run: as §1
# [19] = target: Fuc(a1-2)Gal6S(b1-3)GlcNAc
# How it was run: as §1
# [20] = target: Fuc(a1-2)Gal6S(b1-3)GlcNAc6S
# How it was run: as §1
# [21] = target: Fuc(a1-2)Gal6S(b1-4)Glc
# How it was run: as §1
# [22] = target: Fuc(a1-2)Gal6S(b1-4)Glc6S
# How it was run: as §1
# [23] = target: Fuc(a1-2)Gal6S(b1-4)GlcNAc
# How it was run: as §1
# [24] = target: Fuc(a1-2)[Gal(a1-3)]Gal
# How it was run: as §1
# [25] = target: Fuc(a1-2)[Gal(a1-3)]Gal(b1-3)GalNAc
# How it was run: as §1
# [26] = target: Fuc(a1-2)[Gal(a1-3)]Gal(b1-3)GalNAc(b1-3)Gal(a1-4)Gal(b1-4)Glc
# How it was run: as §1
# [27] = target: Fuc(a1-2)[Gal(a1-3)]Gal(b1-3)GlcNAc
# How it was run: as §1
# [28] = target: Fuc(a1-2)[Gal(a1-3)]Gal(b1-3)GlcNAc(b1-2)Man(a1-3)[Fuc(a1-2)[Gal(a1-3)]Gal(b1-3)GlcNAc(b1-2)Man(a1-6)]Man(b1-4)GlcNAc(b1-4)GlcNAc
# How it was run: as §1
# [29] = target: Fuc(a1-2)[Gal(a1-3)]Gal(b1-3)GlcNAc(b1-2)Man(a1-3)[Fuc(a1-2)[Gal(a1-3)]Gal(b1-3)GlcNAc(b1-2)Man(a1-6)]Man(b1-4)GlcNAc(b1-4)[Fuc(a1-6)]GlcNAc
# How it was run: as §1
# [30] = target: Fuc(a1-2)[Gal(a1-3)]Gal(b1-3)GlcNAc(b1-3)GalNAc
# How it was run: as §1
# [31] = target: Fuc(a1-2)[Gal(a1-3)]Gal(b1-3)GlcNAc(b1-6)GalNAc
# How it was run: as §1
# [32] = target: Fuc(a1-2)[Gal(a1-3)]Gal(b1-4)Glc
# How it was run: as §1
# [33] = target: Fuc(a1-2)[Gal(a1-3)]Gal(b1-4)GlcNAc
# How it was run: as §1
# [34] = target: Fuc(a1-2)[Gal(a1-3)]Gal(b1-4)GlcNAc(b1-2)Man
# How it was run: as §1
# [35] = target: Fuc(a1-2)[Gal(a1-3)]Gal(b1-4)GlcNAc(b1-2)Man(a1-3)[Fuc(a1-2)[Gal(a1-3)]Gal(b1-4)GlcNAc(b1-2)Man(a1-6)]Man(b1-4)GlcNAc(b1-4)GlcNAc
# How it was run: as §1
# [36] = target: Fuc(a1-2)[Gal(a1-3)]Gal(b1-4)GlcNAc(b1-2)Man(a1-3)[Fuc(a1-2)[Gal(a1-3)]Gal(b1-4)GlcNAc(b1-2)Man(a1-6)]Man(b1-4)GlcNAc(b1-4)[Fuc(a1-6)]GlcNAc
# How it was run: as §1
# [37] = target: Fuc(a1-2)[Gal(a1-3)]Gal(b1-4)GlcNAc(b1-3)GalNAc
# How it was run: as §1
# [38] = target: Fuc(a1-2)[Gal(a1-3)]Gal(b1-4)GlcNAc(b1-3)[Fuc(a1-2)[Gal(a1-3)]Gal(b1-4)GlcNAc(b1-6)]GalNAc
# How it was run: as §1
# [39] = target: Fuc(a1-2)[Gal(a1-3)]Gal(b1-4)GlcNAc(b1-6)GalNAc
# How it was run: as §1
# [40] = target: Fuc(a1-2)[Gal(a1-3)]Gal(b1-4)[Fuc(a1-3)]Glc
# How it was run: as §1
# [41] = target: Fuc(a1-2)[Gal(a1-3)]Gal(b1-4)[Fuc(a1-3)]GlcNAc
# How it was run: as §1
# [42] = target: Fuc(a1-2)[Gal(a1-3)]Gal(b1-4)[Fuc(a1-3)]GlcNAc(b1-3)GalNAc
# How it was run: as §1
# [43] = target: Fuc(a1-2)[Gal(a1-4)]Gal(b1-4)GlcNAc
# How it was run: as §1
# [44] = target: Fuc(a1-2)[GalNAc(a1-3)]Gal
# How it was run: as §1
# [45] = target: Fuc(a1-2)[GalNAc(a1-3)]Gal(b1-3)GalNAc(a1-3)[Fuc(a1-2)]Gal(b1-4)GlcNAc
# How it was run: as §1
binder,measurement,setting,value
B1,glycan array binding signal (z-score),[1],0.135
same,glycan array binding signal (z-score),[2],-0.217
same,glycan array binding signal (z-score),[3],-0.118
same,glycan array binding signal (z-score),[4],-0.257
same,glycan array binding signal (z-score),[5],-0.262
same,glycan array binding signal (z-score),[6],-0.226
same,glycan array binding signal (z-score),[7],-0.478
same,glycan array binding signal (z-score),[8],-0.196
same,glycan array binding signal (z-score),[9],-0.492
same,glycan array binding signal (z-score),[10],-0.183
same,glycan array binding signal (z-score),[11],0.601
same,glycan array binding signal (z-score),[12],-0.238
same,glycan array binding signal (z-score),[13],0.147
same,glycan array binding signal (z-score),[14],0.407
same,glycan array binding signal (z-score),[15],0.375
same,glycan array binding signal (z-score),[16],0.107
same,glycan array binding signal (z-score),[17],-0.406
same,glycan array binding signal (z-score),[18],-0.472
same,glycan array binding signal (z-score),[19],-0.368
same,glycan array binding signal (z-score),[20],0.436
same,glycan array binding signal (z-score),[21],-0.211
same,glycan array binding signal (z-score),[22],0.032
same,glycan array binding signal (z-score),[23],-0.778
same,glycan array binding signal (z-score),[24],-0.256
same,glycan array binding signal (z-score),[25],-0.358
same,glycan array binding signal (z-score),[26],-0.468
same,glycan array binding signal (z-score),[27],0.359
same,glycan array binding signal (z-score),[28],-0.289
same,glycan array binding signal (z-score),[29],-0.062
same,glycan array binding signal (z-score),[30],-0.158
same,glycan array binding signal (z-score),[31],-0.083
same,glycan array binding signal (z-score),[32],-0.198
same,glycan array binding signal (z-score),[33],-0.421
same,glycan array binding signal (z-score),[34],-0.228
same,glycan array binding signal (z-score),[35],-0.224
same,glycan array binding signal (z-score),[36],-0.121
same,glycan array binding signal (z-score),[37],-0.333
same,glycan array binding signal (z-score),[38],-0.093
same,glycan array binding signal (z-score),[39],-0.362
same,glycan array binding signal (z-score),[40],-0.413
same,glycan array binding signal (z-score),[41],-0.173
same,glycan array binding signal (z-score),[42],0.401
same,glycan array binding signal (z-score),[43],-0.326
same,glycan array binding signal (z-score),[44],2.1
same,glycan array binding signal (z-score),[45],4.37
